{"source": "the supplement of paper PMC9446081", "note": "Among all 39,000 compounds or so, about 220 (0.56%) showed activity. The list shows a part of the results.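 Also: static incubation at 37 °C against the wild-type strain, values averaged over two biological replicates.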", "data": [{"tested_on": "Escherichia coli K-12 BW25113", "assay": "relative growth (OD600 normalised to plate interquartile mean) (fraction); higher = less growth inhibition, active = 0.2 or less", "conditions": "50 µM; LB; incubation time: overnight (16-24 h)", "values": [{"smiles": "CCOC(=O)N[C@@H]1CC(=O)N(C2CC2)C1", "relative growth": "inactive: 0.981"}, {"smiles": "CCOC(=O)c1cn[nH]c1", "relative growth": "inactive: 0.994"}, {"smiles": "C[C@H](CO)N1C[C@H](C)[C@H](CN(C)C(=O)Cc2ccccc2)OCCCC[C@H](C)Oc2ccc(NC(=O)C3CCCCC3)cc2C1=O", "relative growth": "inactive: 1"}, {"smiles": "Cc1cccc(Nc2ccccc2C(=O)O)c1C", "relative growth": "inactive: 1.01"}, {"smiles": "C[C@H](CO)N1C[C@H](C)[C@@H](CN(C)S(=O)(=O)c2cccs2)OCCCC[C@H](C)Oc2ccc(NC(=O)Cc3ccccc3)cc2C1=O", "relative growth": "inactive: 1.03"}, {"smiles": "Cc1ccc(S(=O)(=O)Nc2ccc3c(c2)CC(=O)N([C@H](C)CO)C[C@@H](C)[C@@H](CN(C)S(=O)(=O)c2cn(C)cn2)O3)cc1", "relative growth": "inactive: 1.04"}, {"smiles": "CCC(C)n1ncn(-c2ccc(N3CCN(c4ccc(OCC5COC(Cn6cncn6)(c6ccc(Cl)cc6Cl)O5)cc4)CC3)cc2)c1=O.Cl.Cl", "note": "(stereo unspecified)", "relative growth": "inactive: 1.14"}, {"smiles": "Cc1noc(C)c1NC(=O)Nc1cccc2c1O[C@H](CN(C)S(=O)(=O)c1ccccc1)[C@H](C)CN([C@H](C)CO)C2=O", "relative growth": "inactive: 0.996"}, {"smiles": "C[C@H](CO)N1C[C@H](C)[C@H](CN(C)C(=O)Nc2ccccc2)Oc2cc(C#C[C@@H](C)O)ccc2S1(=O)=O", "relative growth": "inactive: 1"}, {"smiles": "Cc1noc(C)c1NC(=O)N(C)C[C@H]1OCCCC[C@H](C)Oc2ccc(NC(=O)Cc3ccccc3)cc2C(=O)N([C@H](C)CO)C[C@@H]1C", "relative growth": "inactive: 0.969"}, {"smiles": "C[C@H](CO)N1C[C@H](C)[C@@H](CN(C)Cc2ccccc2)Oc2cc(C#CC(C)(C)O)ccc2S1(=O)=O", "relative growth": "inactive: 0.999"}, {"smiles": "Cn1c(=O)c2c(nc(N(CCO)CCO)n2Cc2ccc(F)cc2)n(C)c1=O", "relative growth": "inactive: 1"}, {"smiles": "COc1cccc(NC(=O)N2C[C@@H](O)COC[C@@H]3O[C@@H](CC(=O)NCc4ccccc4F)CC[C@H]32)c1", "relative growth": "inactive: 0.989"}, {"smiles": "C[C@@H]1CCCCO[C@H](CN(C)Cc2ccncc2)[C@H](C)CN([C@@H](C)CO)C(=O)c2cc(NC(=O)c3ccccc3)ccc2O1", "relative growth": "inactive: 1.02"}, {"smiles": "CC(C)NC(=O)Cn1ccc([N+](=O)[O-])n1", "relative growth": "inactive: 1.03"}, {"smiles": "Nc1cccc(C2=NCCN2)c1", "relative growth": "inactive: 1"}, {"smiles": "COc1ccc(CN(C)C[C@@H]2OCCCC[C@H](C)Oc3ccc(NS(=O)(=O)c4ccc(Cl)cc4)cc3C(=O)N([C@@H](C)CO)C[C@H]2C)cc1", "relative growth": "inactive: 0.957"}, {"smiles": "CC(C)NC(=O)N(C)C[C@@H]1Oc2ccc(NC(=O)CCC(F)(F)F)cc2CC(=O)N([C@H](C)CO)C[C@@H]1C", "relative growth": "inactive: 0.959"}, {"smiles": "NC(=O)N[C@H]1NC(=O)NC1=O", "relative growth": "inactive: 0.959"}, {"smiles": "C[C@@H]1CN([C@H](C)CO)C(=O)c2cc(NS(=O)(=O)c3ccc(Cl)cc3)ccc2O[C@@H](C)CCCCO[C@@H]1CN(C)C(=O)NC1CCCCC1", "relative growth": "inactive: 1.02"}, {"smiles": "Cc1cc(C(=O)Nc2cccc3c2O[C@H](CN(C)Cc2ccc4c(c2)OCO4)[C@@H](C)CN([C@@H](C)CO)C3=O)n(C)n1", "relative growth": "inactive: 1"}, {"smiles": "C[C@H]1CN([C@@H](C)CO)C(=O)c2cc(Br)cnc2O[C@@H]1CN(C)Cc1ccc2c(c1)OCO2", "relative growth": "inactive: 0.976"}, {"smiles": "COc1ccc(NC(=O)[C@@H]2[C@H](c3ccc(C)cc3)CC(=O)N2C(=O)OCc2ccccc2)c2ncccc12", "relative growth": "inactive: 0.992"}, {"smiles": "C[C@@H]1CN([C@@H](C)CO)C(=O)Cc2cc(NS(C)(=O)=O)ccc2O[C@@H]1CN(C)C(=O)NC1CCCCC1", "relative growth": "inactive: 0.992"}, {"smiles": "C[C@H]1CCCCO[C@@H](CN(C)C(=O)C2CCCCC2)[C@@H](C)CN([C@@H](C)CO)C(=O)c2cc(NC(=O)Cc3ccccc3)ccc2O1", "relative growth": "inactive: 1.01"}, {"smiles": "C[C@@H]1CCCCO[C@@H](CN(C)C(=O)C2CCCCC2)[C@H](C)CN([C@@H](C)CO)C(=O)c2cc(NC(=O)c3ccccc3)ccc2O1", "relative growth": "inactive: 1"}, {"smiles": "COc1oc(C(=O)NC2CCCCC2)c(-c2ccc(Cl)cc2)c1S(=O)(=O)c1ccccc1NC(C)=O", "relative growth": "inactive: 1.01"}, {"smiles": "CC(C)(C)[S@@+]([O-])N1Cc2cc(C(=O)O)nc(-c3ccc(Br)cc3)c2[C@H]1CCO[Si](C)(C)C(C)(C)C", "relative growth": "inactive: 0.978"}, {"smiles": "COc1ccccc1N1C(N)=NC(N)=NC1(C)C", "relative growth": "inactive: 0.995"}, {"smiles": "CO[C@H]1CN(C)C(=O)c2cc(NC(=O)c3ccc(F)cc3)ccc2OC[C@H](C)N(C(=O)CN(C)C)C[C@@H]1C", "relative growth": "inactive: 1.06"}, {"smiles": "C[C@@H]1CN([C@@H](C)CO)C(=O)CCCn2cc(nn2)CO[C@@H]1CN(C)S(=O)(=O)c1cn(C)cn1", "relative growth": "inactive: 0.851"}, {"smiles": "C[C@H]1CN([C@@H](C)CO)C(=O)c2cc(NS(=O)(=O)c3ccc(F)cc3)ccc2O[C@@H]1CN(C)S(=O)(=O)c1ccccc1", "relative growth": "inactive: 0.994"}, {"smiles": "Cc1ccc(S(=O)(=O)N(C)C[C@H]2Oc3ccc(NS(=O)(=O)c4cn(C)cn4)cc3C(=O)N([C@H](C)CO)C[C@H]2C)cc1", "relative growth": "inactive: 0.998"}, {"smiles": "C[C@H]1CCCCO[C@H](CN(C)C(=O)Nc2ccc(F)cc2)[C@@H](C)CN([C@@H](C)CO)C(=O)c2cc(NC(=O)Nc3ccc(F)cc3)ccc2O1", "relative growth": "inactive: 1.04"}, {"smiles": "COCC#Cc1ccc2c(c1)O[C@@H](CN(C)Cc1ccc3c(c1)OCO3)[C@H](C)CN([C@H](C)CO)S2(=O)=O", "relative growth": "inactive: 1.03"}, {"smiles": "CN1CCN(C(=O)C[C@@H]2CC[C@@H]3[C@H](COC[C@@H](O)CN3Cc3ccc4c(c3)OCO4)O2)CC1", "relative growth": "inactive: 0.998"}, {"smiles": "Cc1ccc(S(=O)(=O)N(C)C[C@@H]2Oc3ncc(-c4ccncc4)cc3C(=O)N([C@H](C)CO)C[C@@H]2C)cc1", "relative growth": "inactive: 1"}, {"smiles": "C[C@H]1CN([C@@H](C)CO)C(=O)Cc2cc(NC(=O)C3CCCCC3)ccc2O[C@@H]1CN(C)S(=O)(=O)c1cn(C)cn1", "relative growth": "inactive: 1.05"}, {"smiles": "C[C@@H]1CN([C@@H](C)CO)C(=O)Cc2cc(NC(=O)Nc3ccc(C(F)(F)F)cc3)ccc2O[C@H]1CN(C)Cc1ccc(Cl)c(Cl)c1", "relative growth": "inactive: 1.02"}, {"smiles": "O=c1nc(C(F)(F)F)[nH]c2nc[nH]c12", "relative growth": "inactive: 1.01"}, {"smiles": "C[C@H](CO)N1C[C@H](C)[C@@H](CN(C)Cc2cncnc2)Oc2cc(C#CC3CCCC3)ccc2S1(=O)=O", "relative growth": "inactive: 1"}]}]}
